# The other results are listed elsewhere or left out.
# B1: GS13846A-bth-444-19-444 (Bacteroides thetaiotaomicron) (protein)
# chain: SCENEFDVSDKADSLISVTVNTLNNQAAYNVGETAQAELWIQRGGLKDASGKVQFVVDPLLLDSLNQEDKTNYELLPENCYEMTNTEFTVDKNELCGYITYHPEKILALSAYNETKYVLPLRLISNDLAINPARNTSFLAFTILEPIVHISNAGVYNINPDLTSTMDIQIGVPFTNKWDILCNLTEDLSLIDEYNQINKVNFTLLPENAYTAPESVTLQEGVSQITASYQLKNNLVPGNYILPIKIGSITASQGGVPNNSLVIDEESNVLFCIVKEGNKINKSGWEVIECSSEHAGNEATYMIDDNESTYWHCKFKNEAGSSVPPFHFIIDMKKEITIAQIDLLNRGDGAANNIKWVEFYASNNNSEWDKIGAGDFNDEGTRATFRYYVKSTKARYLKLIIPEGYGNNCPPAAIRELTVYGLEGNN
# How the values were obtained:
# Assay in all cases: glycan array binding signal (z-score within array); higher = stronger binding
# Details in all cases: glycan notation: IUPAC condensed, linker removed
# [1] = target: Neu5Ac(a2-6)Gal(b1-4)GlcNAc(b1-2)Man(a1-3)[Man(a1-6)]Man(b1-4)GlcNAc(b1-4)GlcNAc
# How it was run: (§1)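 Negative Z-scores can be read as non-binding. The Z-score is calculated within each array and then averaged across arrays of one protein sequence at different concentrations or buffers and across linkers. Arrays, 3228 in all, were curated from the Consortium for Functional Glycomics database and kept only where the protein sequence was available.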
# [2] = target: Neu5Ac(a2-6)Gal(b1-4)GlcNAc(b1-2)Man(a1-3)[Neu5Ac(a2-3)Gal(b1-4)GlcNAc(b1-2)Man(a1-6)]Man(b1-4)GlcNAc(b1-4)GlcNAc
# How it was run: as §1
# [3] = target: Neu5Ac(a2-6)Gal(b1-4)GlcNAc(b1-2)Man(a1-3)[Neu5Ac(a2-6)Gal(b1-4)GlcNAc(b1-2)Man(a1-6)]Man(b1-4)GlcNAc(b1-4)GlcNAc
# How it was run: as §1
# [4] = target: Neu5Ac(a2-6)Gal(b1-4)GlcNAc(b1-2)Man(a1-3)[Neu5Ac(a2-6)Gal(b1-4)GlcNAc(b1-2)Man(a1-6)]Man(b1-4)GlcNAc(b1-4)[Fuc(a1-6)]GlcNAc
# How it was run: as §1
# [5] = target: Neu5Ac(a2-6)Gal(b1-4)GlcNAc(b1-2)Man(a1-6)Man(b1-4)GlcNAc(b1-4)GlcNAc
# How it was run: as §1
# [6] = target: Neu5Ac(a2-6)Gal(b1-4)GlcNAc(b1-2)Man(a1-6)[Gal(b1-4)GlcNAc(b1-2)Man(a1-3)]Man(b1-4)GlcNAc(b1-4)GlcNAc
# How it was run: as §1
# [7] = target: Neu5Ac(a2-6)Gal(b1-4)GlcNAc(b1-2)Man(a1-6)[GlcNAc(b1-2)Man(a1-3)]Man(b1-4)GlcNAc(b1-4)GlcNAc
# How it was run: as §1
# [8] = target: Neu5Ac(a2-6)Gal(b1-4)GlcNAc(b1-2)Man(a1-6)[Man(a1-3)]Man(b1-4)GlcNAc(b1-4)GlcNAc
# How it was run: as §1
# [9] = target: Neu5Ac(a2-6)Gal(b1-4)GlcNAc(b1-2)[Neu5Ac(a2-6)Gal(b1-4)GlcNAc(b1-4)]Man(a1-3)[GlcNAc(b1-4)][Neu5Ac(a2-6)Gal(b1-4)GlcNAc(b1-2)[Neu5Ac(a2-6)Gal(b1-4)GlcNAc(b1-6)]Man(a1-6)]Man(b1-4)GlcNAc(b1-4)GlcNAc
# How it was run: as §1
# [10] = target: Neu5Ac(a2-6)Gal(b1-4)GlcNAc(b1-2)[Neu5Ac(a2-6)Gal(b1-4)GlcNAc(b1-4)]Man(a1-3)[GlcNAc(b1-4)][Neu5Ac(a2-6)Gal(b1-4)GlcNAc(b1-4)Man(a1-6)]Man(b1-4)GlcNAc(b1-4)GlcNAc
# How it was run: as §1
# [11] = target: Neu5Ac(a2-6)Gal(b1-4)GlcNAc(b1-2)[Neu5Ac(a2-6)Gal(b1-4)GlcNAc(b1-6)]Man(a1-6)[Neu5Ac(a2-6)Gal(b1-4)GlcNAc(b1-2)Man(a1-3)][GlcNAc(b1-4)]Man(b1-4)GlcNAc(b1-4)GlcNAc
# How it was run: as §1
# [12] = target: Neu5Ac(a2-6)Gal(b1-4)GlcNAc(b1-3)Gal(b1-3)GlcNAc
# How it was run: as §1
# [13] = target: Neu5Ac(a2-6)Gal(b1-4)GlcNAc(b1-3)Gal(b1-4)GlcNAc
# How it was run: as §1
# [14] = target: Neu5Ac(a2-6)Gal(b1-4)GlcNAc(b1-3)Gal(b1-4)GlcNAc(b1-2)Man(a1-3)[Neu5Ac(a2-6)Gal(b1-4)GlcNAc(b1-3)Gal(b1-4)GlcNAc(b1-2)Man(a1-6)]GalNAc
# How it was run: as §1
# [15] = target: Neu5Ac(a2-6)Gal(b1-4)GlcNAc(b1-3)Gal(b1-4)GlcNAc(b1-3)Gal(b1-4)GlcNAc
# How it was run: as §1
# [16] = target: Neu5Ac(a2-6)Gal(b1-4)GlcNAc(b1-3)Gal(b1-4)GlcNAc(b1-3)Gal(b1-4)GlcNAc(b1-2)Man(a1-3)[Neu5Ac(a2-6)Gal(b1-4)GlcNAc(b1-3)Gal(b1-4)GlcNAc(b1-3)Gal(b1-4)GlcNAc(b1-2)Man(a1-6)]GalNAc
# How it was run: as §1
# [17] = target: Neu5Ac(a2-6)Gal(b1-4)GlcNAc(b1-3)Gal(b1-4)GlcNAc(b1-3)GalNAc
# How it was run: as §1
# [18] = target: Neu5Ac(a2-6)Gal(b1-4)GlcNAc(b1-3)Gal(b1-4)GlcNAc(b1-3)[Neu5Ac(a2-6)Gal(b1-4)GlcNAc(b1-3)Gal(b1-4)GlcNAc(b1-6)]GalNAc
# How it was run: as §1
# [19] = target: Neu5Ac(a2-6)Gal(b1-4)GlcNAc(b1-3)Gal(b1-4)GlcNAc(b1-6)[Gal(b1-3)]GalNAc
# How it was run: as §1
# [20] = target: Neu5Ac(a2-6)Gal(b1-4)GlcNAc(b1-3)Gal(b1-4)[Fuc(a1-3)]GlcNAc(b1-3)Gal(b1-4)[Fuc(a1-3)]GlcNAc
# How it was run: as §1
# [21] = target: Neu5Ac(a2-6)Gal(b1-4)GlcNAc(b1-3)GalNAc
# How it was run: as §1
# [22] = target: Neu5Ac(a2-6)Gal(b1-4)GlcNAc(b1-3)[Neu5Ac(a2-6)Gal(b1-4)GlcNAc(b1-6)]GalNAc
# How it was run: as §1
# [23] = target: Neu5Ac(a2-6)Gal(b1-4)GlcNAc(b1-6)GalNAc
# How it was run: as §1
# [24] = target: Neu5Ac(a2-6)Gal(b1-4)GlcNAc(b1-6)[Gal(b1-3)GlcNAc(b1-3)]Gal(b1-4)Glc
# How it was run: as §1
# [25] = target: Neu5Ac(a2-6)Gal(b1-4)GlcNAc(b1-6)[Gal(b1-3)]GalNAc
# How it was run: as §1
# [26] = target: Neu5Ac(a2-6)Gal(b1-4)GlcNAc6S
# How it was run: as §1
# Neu5Ac(a2-6)GalNAc = target: Neu5Ac(a2-6)GalNAc
# How it was run: as §1
# [27] = target: Neu5Ac(a2-6)GalNAc(b1-4)GlcNAc
# How it was run: as §1
# [28] = target: Neu5Ac(a2-6)GalNAc(b1-4)GlcNAc6S
# How it was run: as §1
# [29] = target: Neu5Ac(a2-6)GlcNAc(b1-4)GlcNAc
# How it was run: as §1
# [30] = target: Neu5Ac(a2-6)GlcNAc(b1-4)GlcNAc(b1-4)GlcNAc
# How it was run: as §1
binder,measurement,setting,value
B1,glycan array binding signal (z-score),[1],-0.026
same,glycan array binding signal (z-score),[2],-0.204
same,glycan array binding signal (z-score),[3],-0.224
same,glycan array binding signal (z-score),[4],0.228
same,glycan array binding signal (z-score),[5],-0.106
same,glycan array binding signal (z-score),[6],-0.298
same,glycan array binding signal (z-score),[7],-0.112
same,glycan array binding signal (z-score),[8],-0.336
same,glycan array binding signal (z-score),[9],-0.249
same,glycan array binding signal (z-score),[10],0.032
same,glycan array binding signal (z-score),[11],0.02
same,glycan array binding signal (z-score),[12],-0.204
same,glycan array binding signal (z-score),[13],-0.067
same,glycan array binding signal (z-score),[14],-0.321
same,glycan array binding signal (z-score),[15],-0.099
same,glycan array binding signal (z-score),[16],0.79
same,glycan array binding signal (z-score),[17],0.043
same,glycan array binding signal (z-score),[18],0.1
same,glycan array binding signal (z-score),[19],-0.239
same,glycan array binding signal (z-score),[20],-0.235
same,glycan array binding signal (z-score),[21],0.707
same,glycan array binding signal (z-score),[22],-0.33
same,glycan array binding signal (z-score),[23],-0.311
same,glycan array binding signal (z-score),[24],-0.293
same,glycan array binding signal (z-score),[25],1.86
same,glycan array binding signal (z-score),[26],-0.409
same,glycan array binding signal (z-score),Neu5Ac(a2-6)GalNAc,-0.207
same,glycan array binding signal (z-score),[27],-0.289
same,glycan array binding signal (z-score),[28],-0.138
same,glycan array binding signal (z-score),[29],0.027
same,glycan array binding signal (z-score),[30],-0.059

# From the supplement of paper PMC8728848
